# Source: PubChem BioAssay AID463173 (ICCB-Longwood Screening Facility, Harvard Medical School, 2010)
# About 4,300 (8.3%) of roughly 52,000 compounds were called active. No stated cut-off is given here; in the data, active means survival mostly below about 52% (no sharp cut-off); inactive means mostly above about 56%. This is one part of the list. The source holds several records for some structures; these can differ, active in one and inactive in another.
# System: DeltatarO mutant
# Assay: S. aureus survival, RN4220 and DeltatarO strains – OD600, teichoic acid synthesis inhibitors, primary screen (AID 463173)
# Settings: S. aureus RN4220 wild type/DeltatarO growth, OD600, 18 h, stronger effect = lower value, screened at 18.75 µg/mL (by protocol)
row,Structure (SMILES),survival
1,CCCC(=O)Nc1c(C)nn(C(=O)CCC)c1C,inactive: 73%
2,CC1CCN(c2oc(-c3cccs3)nc2S(=O)(=O)c2ccccc2)CC1,active: 35%
3,CCOC(=O)c1cnc2c(ccc3ccccc32)c1Nc1cccc(Cl)c1,active: 14%
4,COc1ccc(CCNC(=O)c2cnc3sc(N4CCOCC4)nn3c2=O)cc1,inactive: 71%
5,O=c1[nH]c2cc3[nH]c(=O)c(=O)c3cc2c1=O,inactive: 89%
6,CCCS(=O)(=O)N1CCC(n2c(C)nc3cccnc32)CC1,inactive: 87%
7,CCN(CC)S(=O)(=O)c1ccc2c(c1)N(CC(=O)NCCCN1CCN(c3ccc(OC)cc3)CC1)C(=O)CO2,inactive: 88%
8,CC1=C(C(=O)OC2CCCC2)C(c2ccc(C)o2)C2=C(CCCC2=O)N1 (stereo not drawn),inactive: 98%
9,Cc1ccc2oc(C(=O)Nc3ccc(S(=O)(=O)N4CCCCC4C)cc3)cc(=O)c2c1 (stereo not drawn),inactive: 73%
10,CCOC(=O)c1cc(-c2ccccc2)n(CCC(=O)NCCc2ccccc2)c1C,active: 0%
11,CCN(C(=O)CSc1nc2ccccc2n1CC(=O)N(C)C1CCCCC1)c1ccccc1,inactive: 118%
12,O=C1CC(C(=O)NCCc2ccccc2)C2(CCCCC2)O1 (stereo not drawn),inactive: 84%
13,CCc1ccc(C(=O)c2cn(CC(=O)Nc3cc(OC)ccc3OC)c3ccc(Cl)cc3c2=O)cc1,inactive: 73%
14,COc1ccc(CNC(=O)c2cnc(N3CCCC3)nc2C)c(OC)c1,inactive: 75%
15,COc1ccccc1CNC(=O)C(NS(=O)(=O)c1ccc2c(c1)CCN2C(C)=O)C(C)C (stereo not drawn),inactive: 79%
16,CCOC(=O)c1cnc2ccc(OC)cc2c1Nc1ccc(OCc2ccccc2Cl)cc1,active: 8%
17,Cc1ccc(NC(=O)CCC(=O)N2Cc3ccccc3Oc3ncccc32)cc1Cl,inactive: 83%
18,COc1ccc(-c2nc3sc(CCNC(=O)Cc4ccccc4)c(C)n3n2)cc1,inactive: 102%
19,N#Cc1cn(CC(=O)Nc2ccccc2C(F)(F)F)c2ccccc12,inactive: 70%
20,COc1ccc(C)cc1NC(=O)c1nnn(Cc2cccc(Br)c2)c1N,inactive: 87%

row,Structure (SMILES),survival
1,COc1ccc(C2=NS(=O)(=O)N(C)C(C(=O)NC(C)c3ccccc3)=C2)cc1 (stereo not drawn),inactive: 64%
2,CCC(=O)N1CCc2cc(S(=O)(=O)NCc3ccc(C)cc3)ccc21,inactive: 95%
3,COc1ccccc1NC(=O)C1=C(C)Nc2nc3ccccc3n2C1c1ccccc1Cl (stereo not drawn),inactive: 62%
4,CN(C)c1ncc(C(=O)NCc2ccc(Cl)cc2)cn1,inactive: 80%
5,Cc1nc(N)nc2c1C(=O)CC(c1ccccc1)C2 (stereo not drawn),inactive: 99%
6,CCOc1ccc(NC(=O)c2ccc(F)c(S(=O)(=O)N(Cc3ccc(C(=O)OC)cc3)Cc3ccc(OC)c(OC)c3)c2)cc1,active: 47%
7,O=C(Cn1cc(C(=O)c2ccco2)c2ccccc21)Nc1ccccc1,active: 41%
8,CCOc1ccc(N2CC(C)Cn3c2nc2c3c(=O)n(Cc3c(F)cccc3Cl)c(=O)n2C)cc1 (stereo not drawn),inactive: 45%
9,NC(=O)COc1cccc(-n2cnnn2)c1,inactive: 63%
10,O=C(c1ccco1)N1CCN(C2CC(=O)N(c3ccc(F)c(Cl)c3)C2=O)CC1 (stereo not drawn),inactive: 82%
11,CCOC(=O)N1CCN(Cc2nc3cc(NC(=O)c4ccccc4Cl)ccc3n2C(C)C)CC1,inactive: 70%
12,COc1ccccc1NC(=O)CSc1cn(CC(=O)N2CCCC2)c2ccccc12,inactive: 88%
13,CC(=O)c1cccc(NC(=O)CCc2c(C)nc3nc(CN)nn3c2C)c1,inactive: 92%
14,CC(=O)N1CCc2c(sc3c2c(=O)n(-c2ccccc2Cl)c(=O)n3Cc2cccc(C)c2)C1,inactive: 74%
15,CCC1CCCCN1C(=O)CSc1nnc(-c2ccc(OC)c(OC)c2)o1 (stereo not drawn),inactive: 71%
16,Cc1ccc2nc(-c3cccs3)c(Nc3ccc4c(c3)OCCO4)n2c1,inactive: 99%
17,N#Cc1ccc(NC(=O)CNCC2CCCCC2)cc1,inactive: 100%
18,CCOC(=O)c1ccc(NC(=O)N2CC3CCCN3c3ccccc32)cc1 (stereo not drawn),inactive: 87%
19,COc1cccc(NC(=O)c2ccc(CN3CCN(c4ccccc4)CC3)cc2)c1,inactive: 92%
20,Cc1ccc(S(=O)(=O)c2cnc(SCC(=O)Nc3ccc4c(c3)OCCO4)[nH]c2=O)cc1C,inactive: 74%

row,Structure (SMILES),survival
1,COC(=O)CN1C(C(=O)c2ccccc2)=C(OC(=O)c2ccc(F)cc2)c2ccccc2S1(=O)=O,inactive: 56%
2,COc1cccc(-n2c(C)nc3cc(C(=O)O)ccc32)c1,inactive: 177%
3,COc1cc2nc(NC(=O)c3ccc(S(=O)(=O)N4CCc5ccccc54)cc3)sc2cc1OC,inactive: 64%
4,CCN(CCCNC(=O)c1cc2c(=O)n(CC)c3ccccc3c2s1)Cc1ccccc1,inactive: 101%
5,CC1CCCCN1C(=O)c1ccc2c(c1)N(Cc1ccc(F)cc1)C(=O)c1ccccc1S2(=O)=O (stereo not drawn),inactive: 69%
6,COc1cccc(-c2nc3c(C#N)c[nH]n3c2NC2CCCC2)c1OC,active: 64%
7,O=C(CSc1ncc(-c2ccccc2)[nH]1)Nc1cccc(Br)c1,active: 9%
8,Cc1cc(OCC(=O)N2CCC(c3nc4ccccc4s3)CC2)ccc1Cl,active: 23%
9,Cc1ccc(-c2nnn3c2nc(NC2CCC(C)CC2)c2ccccc23)cc1 (stereo not drawn),active: -4%
10,CCN(Cc1ccccc1)C(c1cccnc1)c1nnnn1Cc1ccccc1 (stereo not drawn),inactive: 86%
11,Cc1cc2n(n1)CCCN2C(=O)Nc1ccc(F)c(Cl)c1,inactive: 79%
12,CCN(CC)C(=O)c1cnn(-c2ccc(F)cc2)c1-n1cccc1,inactive: 73%
13,COc1ccc(N2CCN(C(=O)c3ccc4c(=O)n(CCc5ccc(OC)c(OC)c5)c(=O)[nH]c4c3)CC2)cc1,inactive: 104%
14,CCc1ccc(CNC(=O)CSc2cc(=O)n(CC)c3ccccc23)cc1,inactive: 87%
15,CCNC(=O)c1c(C)oc2ncn(C)c(=O)c12,inactive: 91%
16,COc1ccc(-c2nc(N)n(C(=O)c3ccco3)n2)cc1,inactive: 103%
17,CCc1nn(CC(=O)N(CC)Cc2ccccc2)c(=O)c2cc3occc3n12,inactive: 54%
18,CCOc1ccccc1NC(=O)Cn1c(=O)n(-c2ccccc2)c(=O)c2c1c1cc(C)ccc1n2C,inactive: 70%
